Experimental data published in patent publication US20250345451A1 (BIOTHEUS, published 2025).
Like-named read-outs stand apart in the source and are kept apart here.

B1: C-Ye-02 (Fc fusion)
chain: QVQLQESGGGLVQAGGSLRLSCAASGRTFNNSAMGAMGWFRQAPGKEREFVATITWSSGSSFYANSVKGRFTISRDNAKNTVYLQMNSLKPEDTAVYYCASRKLGGVVTVVTSYDFWGQGTQVTVSS[omitted - human IgG1 Fc with changes]
B2: C-Ye-06 (Fc fusion)
chain: QVQLQESGGGLVQPGGSLRLSCAASGRTFDNYAMGAMGWFRQAPGKEREFVATITWSSGSSFYANSVKGRFTISRDNAKNTVYLQMNSLKPDDTAVYYCASRKLGGVVTVVTSYDFWGQGTQVTVSS[omitted - human IgG1 Fc with changes]
B3: C-Ye-17 (Fc fusion)
chain: QVQLQESGGGLVQAGGSLRLSCVASGRTVSNYAMGWFRQAPGKEREFVARITGSGSSTFYADSVKGLFTISRNNLSNTVYLQMNSLKREDTAVYYCAADRWRSMVTRSDPREYENWGQGTQVTVSS[omitted - human IgG1 Fc with changes]
B4: C-Ye-20 (Fc fusion)
chain: QVQLQESGGGLVQAGGSLRLSCVASGRTVSNYAMGWFRQAPGKEREFVARITGSGSSTFYADSVKGRFTISRDNAKNAVYLQMNSLKPEDTAVYYCAADRWRSMVTRSYPREYENWGQGTQVTVSS[omitted - human IgG1 Fc with changes]
B5: C-Ye-24 (Fc fusion)
chain: QVQLQESGGGVVQAGDSLRLSCVASGRTVSNYAMGWFRQAPGKEREFVARITGSGRTTYYADSVKGRFTISRNNLSNTVYLQMNSLKREDTAVYYCAADRWRSMVTRSDPREYENWGQGTQVTVSS[omitted - human IgG1 Fc with changes]
B6: C-Ye-26 (Fc fusion)
chain: QVQLQESGGGLVQAGGSLRLSCVASGRTVSNYAMGWFRQAPGKEREFVARITGSGSSTFYADSVKGRFTISRNNLSNTVYLQMNSLKREDTAVYYCAADRWRSMVTRSDPRDYENWGQGTQVTVSS[omitted - human IgG1 Fc with changes]
B7: C-Ye-27 (Fc fusion)
chain: QVQLQESGGGLVQAGGSLRLSCAASGRTFSRYAVGWFRQAPGLGRDFVAAITWSGGYTYYADSVKGRFTISRDNAKNTVYLQMNSLKPEDTAVYYCAVDTRNVIGPRAGDYWGQGTQVTVSS[omitted - human IgG1 Fc with changes]
B8: C-Ye-30 (Fc fusion)
chain: QVQLQESGGGLVQAGGSLRLSCAASGSTFSRYAVGWFRQAPGLGRDFVAAITWSGGYTYYADSVKGRFTISRDNAKNTVYLQMNSLKPEDTAVYYCAVDTRNVIGPRAGDYWGQGTQVTVSS[omitted - human IgG1 Fc with changes]
B9: C-Ye-32 (Fc fusion)
chain: QVQLQESGGGLVQAGGSLRLSCAASGRTFSRYAVGWFRQAPGLGRDFVAAITWSGGYTYYADSVKGRFTISRDNAKNTIYLQMNSLNVEDTGVYYCAVDTRNVIGPRAGDYWGQGTQVTVSS[omitted - human IgG1 Fc with changes]
B10: C-Ye-34 (Fc fusion)
chain: QVQLQESGGGLVQAGGSLRLSCAASGRTFSRFAMGWFRQAPGKEREFVAAISWSGGMIYYTDSVKGRFTISRDNAKNMLYLQMNSLKPEDTAVYYCAVDTRNVIGPRAGDYWGQGTQVTVSS[omitted - human IgG1 Fc with changes]
B11: C-Ye-42 (Fc fusion)
chain: QVQLQESGGGLVQAGGSLRLSCAASGRTGSRYAVGWFRQAPGLGRDFVAAITWSGGYTYYADSVKGRFTISRDNAKNTMYLQMNSLKPEDTAVYYCAVDTRNVIGPRAGDYWGQGTQVTVSS[omitted - human IgG1 Fc with changes]
B12: C-Ye-39 (Fc fusion)
chain: QVQLQESGGGLVQAGGSLRLSCTASGRAFSVYPMAWFRQAPGKEREFIARLTYTSNTFYADSVKGRFTISRDNAKNTVYLQMNSLKPEDTAVYYCAVENRSSSWSLQSPARYDDWGQGTQVTVSS[omitted - human IgG1 Fc with changes]
B13: C-Ye-18-6 (Fc fusion)
chain: EVQLQESGGGLVQPGGSLRLSCAASGFTFSSYWMYWLRQAPGKGLEWVSSISGSSSSTYYRDSVKGRFTISRDNAKNTLYLQMNSLKSEDTAVYYCAKDPGGYAKGQGTQVTVSS[omitted - human IgG1 Fc with changes]

Legend:
human PD-L1 protein [1] = biological target: T1, human PD-L1 protein (human, UniProt Q9NZQ7 in part, limits assumed)
T1 construct: also called PD-L1 antigen

human PD-L1 protein [2] = biological target: T1, human PD-L1 protein; experiment: ForteBio BLI as in Example 5, human PD-L1
T1 sequence (Q9NZQ7 19-238 limits assumed): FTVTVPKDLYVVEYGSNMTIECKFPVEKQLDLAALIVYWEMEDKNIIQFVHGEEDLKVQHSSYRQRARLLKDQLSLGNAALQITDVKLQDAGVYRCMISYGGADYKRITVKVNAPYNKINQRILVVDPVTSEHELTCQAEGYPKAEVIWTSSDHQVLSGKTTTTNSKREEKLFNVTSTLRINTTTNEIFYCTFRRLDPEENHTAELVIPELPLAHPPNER

Kd (human PD-L1 protein [1]) [nM]	koff (human PD-L1 protein [1]) [s⁻¹]	kon (human PD-L1 protein [1]) [M⁻¹ s⁻¹]	Kd (human PD-L1 protein [2]) [nM]	koff (human PD-L1 protein [2]) [s⁻¹]	kon (human PD-L1 protein [2]) [M⁻¹ s⁻¹]	Binder
79.8	0.00375	46900	–	–	–	B1
134	0.00581	43500	–	–	–	B2
396	0.0102	25800	–	–	–	B3
48.6	0.0044	90600	–	–	–	B4
19.5	0.00151	77100	–	–	–	B5
34.1	0.00321	94100	–	–	–	B6
57.9	0.00315	54500	–	–	–	B7
39.4	0.0021	53200	–	–	–	B8
44.3	0.00258	58300	–	–	–	B9
24.4	0.00191	78100	–	–	–	B10
38.9	0.00222	57000	–	–	–	B11
503	0.0107	21200	–	–	–	B12
–	–	–	6	0.00139	232000	B13
